Assay results as given in article PMC6451091.
The list shows a part of the results. For part of these data: At the low end of the ranking, values are background and their order means little. For part of these data: The protein was read in a cell extract, so binding may be indirect.

Columns and labels:
Settings in all cases: 20 mM HEPES pH 7.9, 100 mM NaCl, 1 mM DTT, 0.2 mg/mL BSA, 0.02% Triton X-100, 2% milk, 0.4 mg/mL salmon testes DNA; 1 h; temperature not stated; high values mean tight binding; double strand, one strand shown; sequences stand for … in GCCTAGCAC…GTGCTAGGTCTTGATTCGCTTGACGCTGCTG
PU.1 (IVT) = PU.1 (IVT) (UniProt P17947); assay: protein-binding microarray (PBM)
[1] = target: PU.1 (endogenous, THP-1 nuclear extract) (UniProt P17947); assay: nuclear extract protein-binding microarray (nextPBM)
[2] = target: T1, FLI1 (endogenous, THP-1 nuclear extract) (UniProt Q01543); assay: as above
T1 sequence: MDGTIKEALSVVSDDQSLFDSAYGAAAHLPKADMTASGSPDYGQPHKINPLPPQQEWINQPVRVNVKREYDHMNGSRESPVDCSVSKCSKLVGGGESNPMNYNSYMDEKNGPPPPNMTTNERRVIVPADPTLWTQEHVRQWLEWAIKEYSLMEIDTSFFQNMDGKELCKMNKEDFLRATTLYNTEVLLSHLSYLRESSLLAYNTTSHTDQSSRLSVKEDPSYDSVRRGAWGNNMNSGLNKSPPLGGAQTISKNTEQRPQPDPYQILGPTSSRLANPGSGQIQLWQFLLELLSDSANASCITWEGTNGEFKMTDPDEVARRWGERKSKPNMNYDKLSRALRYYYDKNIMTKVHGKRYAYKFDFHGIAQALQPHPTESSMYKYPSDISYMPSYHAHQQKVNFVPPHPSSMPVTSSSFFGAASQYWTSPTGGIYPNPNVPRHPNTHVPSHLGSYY

Sequence	binding signal (PU.1 (IVT))	binding signal [1]	binding signal [2]
GAAAACAGGAACTGCAAATA	6 z-score	6.17 z-score	2.74 z-score
AGAGAGGGGAACTGCCGCAG	1.81 z-score	1.85 z-score	0.0985 z-score
ATAGGGAGGAAGTTGTAACT	4.15 z-score	3.65 z-score	2.57 z-score
GAGAAAAGGAAGTGAAGACA	3.69 z-score	3.37 z-score	2.5 z-score
AGAGAAAGGAAGTGGCCTTT	2.65 z-score	2.5 z-score	2.53 z-score
GATAAGAGGAAGTCCGCTGT	5.74 z-score	6.39 z-score	2.82 z-score
GATGGGAGGAAGTGTTTGAG	3.32 z-score	2.77 z-score	2.76 z-score
AGAAAAGGGAACTGGCAAGC	4.26 z-score	4.54 z-score	1.1 z-score
AGAAGGGGGAAGTGCTACAC	4.97 z-score	5.36 z-score	2.11 z-score
TGTAACAGGAAGTGGAATAA	4.8 z-score	5.32 z-score	5.09 z-score
AAAAAGAGGAAGTCAAACTA	8.48 z-score	7.34 z-score	4.13 z-score
GAGATGAGGAAGTGGGGACA	4.82 z-score	5.49 z-score	2.09 z-score
GAAATGAGGAACTGCTCCTA	6.58 z-score	6.69 z-score	2 z-score
TAAAAGAGGAAGTGGTCAGA	8.17 z-score	7.14 z-score	4.4 z-score
AGGAAGGGGAAGTGCCGGGC	4.95 z-score	6.2 z-score	2.8 z-score
CCCAAAAGGAAGTGAAGTTG	2.76 z-score	2.33 z-score	2.78 z-score
GGAAAGAGGAAGTGACATGG	8.2 z-score	7.33 z-score	4.43 z-score
AAAAAGGAGAAGTCACTGTG	5.48 z-score	6.1 z-score	1.86 z-score
AAAATGAGGAAGTCACTGAG	8.03 z-score	7.32 z-score	3.4 z-score
CAAAACAGGAAGTGGCTCTT	7.77 z-score	7.41 z-score	5.67 z-score
ACAAAAAGGAACTGTGTCCC	2.34 z-score	1.64 z-score	1.11 z-score
GGGAGAAGGAAGTGGGAGCC	2.71 z-score	2.63 z-score	1.95 z-score
ACAAGAAGGAACTGTGCCCC	1.28 z-score	1.33 z-score	0.666 z-score
AAAGAGAGGAAGTACAGTTT	5.35 z-score	5.23 z-score	2.88 z-score

Sequence	binding signal (PU.1 (IVT))	binding signal [1]	binding signal [2]
ATAAAGAGGAAGTGGCTAGG	7.2 z-score	7.13 z-score	3.66 z-score
GGAGGGAGGAAGTGAGACAG	3.27 z-score	3.42 z-score	2.64 z-score
CCCATAGGGAAGTGGTCAGA	3.99 z-score	4.49 z-score	1.53 z-score
AAAAAAAGGAACTGGCTAGT	4.9 z-score	4.36 z-score	1.39 z-score
CAAATGAGGAACGGATGCGG	2.7 z-score	2.61 z-score	2.53 z-score
GGTTTGGGGAAGTGGTTAAC	5.39 z-score	5.52 z-score	2.27 z-score
GAAAAGAGGAACAGCCTCTG	5.13 z-score	5.96 z-score	1.46 z-score
CAAATAGGGAAGTGGACTCA	6.15 z-score	6.72 z-score	2.43 z-score
AGAAAGAGGAAGTCACAAGG	7.68 z-score	7.06 z-score	3.47 z-score
AAAAACAGGAAGTGGAAAAA	8.21 z-score	6.94 z-score	5.12 z-score
AAAAAAAGGAAGTGGCTAGA	6.45 z-score	6.57 z-score	3.06 z-score
CAAAAAGGGAAGTGAATGCT	6.92 z-score	6.73 z-score	3.03 z-score
GAAAAAAGGAAGTGGGTCAC	5.92 z-score	6.56 z-score	2.92 z-score
TCTGAGGGGAAGTGCTGGTC	3.23 z-score	3.51 z-score	2.35 z-score
AAAAAAAGGAACTAGCTAGA	5.63 z-score	5.32 z-score	1.85 z-score
CAAAAGAGGAAGTGAGAAGC	8.31 z-score	7.49 z-score	4.02 z-score
GGAAGGGGGAAGTGGGCCAG	4.38 z-score	4.98 z-score	2 z-score
TGAAAGGGGAAGTGCCACGT	6.96 z-score	7.01 z-score	3.4 z-score
TGAAAGAGGAAGTCAAATTG	7.31 z-score	7.09 z-score	4.06 z-score
TGAAAGCAGAAGTGGCCAGG	4.3 z-score	5.03 z-score	1.56 z-score
AAAAAAAGGAACTGGCAAGA	4.43 z-score	4.22 z-score	1.71 z-score
TGAAAGAGGAAGTGCAACCA	7.27 z-score	7.28 z-score	3.66 z-score
ACAAAAAGGAACTGTCCCCC	2.45 z-score	1.66 z-score	1.19 z-score
AAAATGAGGAAGTTGGATGG	8.35 z-score	7.3 z-score	3.82 z-score

Sequence	binding signal (PU.1 (IVT))	binding signal [1]	binding signal [2]
TGCAAGAGGAAGTGGAGGCA	4.51 z-score	5.27 z-score	2.97 z-score
TGAAAGAGGAAGTAGAAAAA	7.5 z-score	7.26 z-score	3.66 z-score
GAAATAAGGAAGTGCTAACA	6.6 z-score	6.61 z-score	2.62 z-score
GAAATGGGGAAGTGGCCAGA	6.85 z-score	7.01 z-score	2.83 z-score
TGAAAGAGCAAGTGCAACCA	-0.271 z-score	-0.442 z-score	-0.628 z-score
CGAAAGGGGAAGTGCTAAAT	7.23 z-score	7.1 z-score	3.16 z-score
TGCATGAGGAAGTACTGTGA	5.15 z-score	5.82 z-score	2.27 z-score
GAAAACAGGAATTCCCATAG	2.2 z-score	1.69 z-score	1.26 z-score
CAAAGAGGGAAGTGACCTTC	5.06 z-score	5.25 z-score	2.07 z-score
GGATAGGGGAAGTGAGCCGG	4.6 z-score	5.46 z-score	2.2 z-score
CTAAGGAGGAAGTAAAAGCA	4.84 z-score	5.38 z-score	2.65 z-score
GAAAAGAGGAAGTCAGAAAT	8.35 z-score	7.35 z-score	4.02 z-score
GAAAAAGGGAAGTGGTTCAT	7.6 z-score	7.26 z-score	2.93 z-score
TAAAGAAGGAAGTGAAAATT	4.33 z-score	4.72 z-score	2.23 z-score
AAAAAACGGAACTGCAGAAG	4.89 z-score	4.87 z-score	2.02 z-score
AGAAAGGGGAAGTGCTAAAC	7.63 z-score	7.23 z-score	3.23 z-score
GCAAGGAGGAAGTCATCCAT	4.41 z-score	4.78 z-score	2.61 z-score
TTTAACAGGAAGTGAAACCA	4.61 z-score	7.09 z-score	5.27 z-score
CTGCAAAGGAAGTCTGGGCC	0.767 z-score	0.872 z-score	1.76 z-score
AAAAAAAGGAAATGAAAATG	3.71 z-score	2.92 z-score	2.35 z-score
AAAAAAAGGAACTGGCTACA	4.54 z-score	4.08 z-score	1.58 z-score
TGAATGAGGAAATGGGTCGA	3.26 z-score	3.61 z-score	1.9 z-score
GGTGGGAGGAAGTGCTTATT	4.11 z-score	3.76 z-score	2.85 z-score
GAGGAGAGGAAGTGAAAACA	4.19 z-score	4.12 z-score	2.97 z-score

Sequence	binding signal (PU.1 (IVT))	binding signal [1]	binding signal [2]
AGAAAAAGGAACTGCAGACT	3.67 z-score	3.24 z-score	1.16 z-score
CAATTGAGGAACTGTAGATG	4.22 z-score	4.63 z-score	1.29 z-score
TTGGAGAGGAAGTGATTCAA	4.24 z-score	4.19 z-score	3.02 z-score
AAAAAAGGGAAGTGAAAATA	7.69 z-score	7.33 z-score	3.85 z-score
GAAAAGAGGAAGTCGAATTA	8.06 z-score	7.25 z-score	3.89 z-score
AGGAAGAGGAAATGATTTTA	3.77 z-score	3.11 z-score	3.1 z-score
CTAAAAAGGAAGTGTCTATA	3.85 z-score	3.42 z-score	2.59 z-score
CAAATGAGGAACTGAAGCGG	5.81 z-score	6.28 z-score	1.53 z-score
CTGGAAAGGAAGTGCCCCCA	1.9 z-score	1.98 z-score	2.47 z-score
AAAAAGAGGAAGTAAAAGAC	8.93 z-score	7.41 z-score	4.45 z-score
TGAAAGAGGAAGTGGAACCA	7.75 z-score	7.45 z-score	3.97 z-score
GGGGAAGGGAAGTGCTGGGT	2.31 z-score	2.69 z-score	1.52 z-score
GAAAAGGGGAAGTCAATCAG	7.69 z-score	7.37 z-score	3.15 z-score
TGACAGAGGAAGTGGCAGCC	3.23 z-score	3.21 z-score	2.35 z-score
GAAAAGAGGAAATGAAATTG	6.51 z-score	6.43 z-score	3.31 z-score
GAAATAAGGAAGTGCTCAAA	6.62 z-score	6.62 z-score	2.84 z-score
AAAAAGAGGAAGTCATTCTT	8.71 z-score	7.52 z-score	4.56 z-score
GGAGAAAGGAAGTGACTCAC	2.76 z-score	2.8 z-score	2.83 z-score
ACAAACGGGAAGTACTGTGT	6.15 z-score	6.15 z-score	3.07 z-score
CAGAAAAGGAACTGTGCCAC	1.62 z-score	1.5 z-score	0.517 z-score
GATAAGAGGAAGACCTCTGT	1.92 z-score	2.61 z-score	1.11 z-score
TCAAAGAGGAAGTGTAAGAC	6.44 z-score	6.56 z-score	3.36 z-score
CAGAGAAGGAAGTGTGGTCT	2.76 z-score	3.1 z-score	1.98 z-score
GAAAAGAGGAAGTCAAATGG	8.01 z-score	7.13 z-score	4.17 z-score

Sequence	binding signal (PU.1 (IVT))	binding signal [1]	binding signal [2]
ACTTTGAGGAAGTGCAAAAT	5.76 z-score	5.96 z-score	2.73 z-score
AGAAAAAGGAAGTGAGCAAA	5.53 z-score	5.79 z-score	2.64 z-score
ACAAAAAGGAACTGTGCTCC	2.3 z-score	1.75 z-score	0.84 z-score
TATTAGAGGAAGTGGCAGAG	4.62 z-score	5.39 z-score	2.77 z-score
GAAAGGGGGAAGTGCAGCTG	5.05 z-score	5.4 z-score	2.25 z-score
GACGCTGGGAAGTACTGTGA	0.737 z-score	0.664 z-score	0.527 z-score
ACTGAGGGGAAGTGGTTCCA	3.76 z-score	3.49 z-score	2.22 z-score
GATAAGAGGAAATCCTCTGT	2.29 z-score	2.03 z-score	1.78 z-score
CAAAAGAGGAAGTCATTTAT	8.11 z-score	7.43 z-score	4.14 z-score
CGAAAGGGGAAGTACTAAAC	6.92 z-score	6.96 z-score	3.49 z-score
AAAAAGAGGAACTGAATGTC	7.27 z-score	7.14 z-score	2.9 z-score
GGAGAGAGGAAGTGCAGAGT	4.14 z-score	4.27 z-score	2.72 z-score
AATAAAGGGAAGTGACTGCT	5.43 z-score	6.15 z-score	2.14 z-score
ACTTTGGGGAAGTGGGATTT	4.59 z-score	4.8 z-score	1.84 z-score
CAAAAAGGGAAGTGTCTGCA	6.22 z-score	6.6 z-score	2.55 z-score
GTGGAAGGGAAGTGGGGAAA	2.6 z-score	2.47 z-score	2.08 z-score
GAAATAGGGAAGTCAGGAGG	6.12 z-score	6.55 z-score	2.26 z-score
GATAAGAGGAAGTCCTGTGT	6.22 z-score	6.59 z-score	2.96 z-score
GAAAAGAGGAAGTAGGATAA	8.46 z-score	7.27 z-score	4.13 z-score
TGAAAGGGGAAGTGAGCTGC	6.48 z-score	6.78 z-score	3 z-score
AAAAAAAGGAAGTGAGATAA	6.74 z-score	6.75 z-score	3.34 z-score
AAGGGGAGGAAGTACAGCCC	3.46 z-score	3.11 z-score	2.1 z-score
TATATAGGGAAGTGGGATTC	4.85 z-score	5.15 z-score	1.5 z-score
TTTTTGAGGAACTGTCATAT	4.42 z-score	4.02 z-score	1.07 z-score
